According to article PMC11995724, “Antibiotic target discovery by integrated phenotypic and activity-based profiling of electrophilic fragments” (Cell chemical biology, 2025):
Screen size: about 3,200 compounds; about 110 (3.4%) showed an effect of 50% or more. Some of the results follow.

Tested on: T1, V. cholerae SAD30
T1 construct: SAD30
Parameters: species or system S. aureus MSSA476 (TSB) or V. cholerae SAD30 (LB); 384-well bacterial growth screen at 25 uM, OD600 relative to DMSO control
Conditions: relative growth, OD600, LB; 25 µM; inhibitor

Row | SMILES | % of control remaining
1 | CC(Cl)C(=O)NC(=O)NC12CC3CC(CC(C3)C1)C2 (stereo not drawn) [6-D10, 1-(adamantan-1-yl)-3-(2-chloropropanoyl)urea] | 77.8083%
2 | CCC1SC(=C(C#N)C(=O)NC)N(c2ccc(Cl)cc2)C1=O (stereo not drawn) [8-L15, 2-[3-(4-chlorophenyl)-5-ethyl-4-oxo-1,3-thiazolidin-2-ylidene]-2-cyano-N-methylacetamide] | 72.9436%
3 | CC(Cl)C(=O)NC(=O)NCc1cccs1 (stereo not drawn) [6-E05, 3-(2-chloropropanoyl)-1-[(thiophen-2-yl)methyl]urea] | 91.6106%
4 | CC(Cl)C(=O)NC1(c2noc(C(F)F)n2)CCC1 (stereo not drawn) [6-B15, 2-chloro-N-{1-[5-(difluoromethyl)-1,2,4-oxadiazol-3-yl]cyclobutyl}propanamide] | 95.0991%
5 | O=C(CCl)NC(c1cc(F)ccc1F)C(F)F (stereo not drawn) [7-F22, 2-chloro-N-[1-(2,5-difluorophenyl)-2,2-difluoroethyl]acetamide] | 92.5161%
6 | O=C(CCl)NCC1CCN(C(=O)Cc2ccccc2)C1 (stereo not drawn) [7-B08, 2-chloro-N-{[1-(2-phenylacetyl)pyrrolidin-3-yl]methyl}acetamide] | 86.3043%
7 | C=CC(=O)N1CC(C)OC2(CCOCC2)C1 (stereo not drawn) [3-I12, 1-{2-methyl-1,9-dioxa-4-azaspiro[5.5]undecan-4-yl}prop-2-en-1-one] | 81.8563%
8 | Cc1ccccc1CC(C)NC(=O)CCl (stereo not drawn) [6-C06, 2-chloro-N-[1-(2-methylphenyl)propan-2-yl]acetamide] | 89.7905%
9 | C=CC(=O)NC(C)c1nnnn1C (stereo not drawn) [3-A15, N-[1-(1-methyl-1H-1,2,3,4-tetrazol-5-yl)ethyl]prop-2-enamide] | 113.615%
10 | C=CC(=O)N1CCC(Cn2cnnc2)CC1 [3-P09, 1-{4-[(4H-1,2,4-triazol-4-yl)methyl]piperidin-1-yl}prop-2-en-1-one] | 109.557%
11 | O=C(CCl)NCc1cc([N+](=O)[O-])ccc1O [4-A05, 2-chloro-N-[(2-hydroxy-5-nitrophenyl)methyl]acetamide] | 105.586%
12 | CC(Cl)C(=O)N[C@H](CC(N)=O)c1cccc(Cl)c1 (stereo partly drawn) [7-O09, (3R)-3-(3-chlorophenyl)-3-(2-chloropropanamido)propanamide] | 79.5639%
13 | C=CCNC(=O)C(C#N)=Cc1c(C)nn(-c2ccc(F)cc2)c1Cl [9-L07, 3-[5-chloro-1-(4-fluorophenyl)-3-methyl-1H-pyrazol-4-yl]-2-cyano-N-(prop-2-en-1-yl)prop-2-enamide] | 88.4432%
14 | Cc1cc(-n2c(C)cc(C=C(C#N)C(=O)NC3CCCC3)c2C)no1 [9-J15, 2-cyano-N-cyclopentyl-3-[2,5-dimethyl-1-(5-methyl-1,2-oxazol-3-yl)-1H-pyrrol-3-yl]prop-2-enamide] | 77.0224%
15 | C=CC(=O)N1CCC(C(=O)Nc2[nH]nc(C(F)(F)F)c2C)CC1 [1-O04, N-[4-methyl-3-(trifluoromethyl)-1H-pyrazol-5-yl]-1-(prop-2-enoyl)piperidine-4-carboxamide] | 93.423%
16 | CC(Cl)C(=O)N(C(C)CS(C)(=O)=O)C1CC1 (stereo not drawn) [6-L17, 2-chloro-N-cyclopropyl-N-(1-methanesulfonylpropan-2-yl)propanamide] | 86.757%
17 | CCC(C)n1nccc1NC(=O)C(C)Cl (stereo not drawn) [6-A20, N-[1-(butan-2-yl)-1H-pyrazol-5-yl]-2-chloropropanamide] | 95.4024%
18 | O=C(CCl)NCC(=O)Nc1ccc(F)c(F)c1F [4-D18, 2-chloro-N-{[(2,3,4-trifluorophenyl)carbamoyl]methyl}acetamide] | 103.515%
19 | O=C(CCl)c1c(-c2ccc(F)cc2)[nH]c2ccccc12 [10-P04, 2-chloro-1-[2-(4-fluorophenyl)-1H-indol-3-yl]ethan-1-one] | 95.8504%
20 | N#CC(=Cc1ccc(N2CCOCC2)cc1)C(=O)Nc1ccccc1F [9-B03, 2-cyano-N-(2-fluorophenyl)-3-[4-(morpholin-4-yl)phenyl]prop-2-enamide] | 97.5527%
21 | CCOc1cc(C=C(C#N)C(=O)Nc2cccc(C)c2)ccc1O [9-G06, 2-cyano-3-(3-ethoxy-4-hydroxyphenyl)-N-(3-methylphenyl)prop-2-enamide] | 85.0442%
22 | O=C(CCl)Nc1ccccc1OC(F)F [4-N09, 2-chloro-N-[2-(difluoromethoxy)phenyl]acetamide] | 109.554%
23 | CC(Cl)C(=O)N1CCCC(CC(=O)OC(C)(C)C)CC1 (stereo not drawn) [6-P18, tert-butyl 2-[1-(2-chloropropanoyl)azepan-4-yl]acetate] | 90.8522%

Row | SMILES | % of control remaining
24 | C=CC(=O)NCC1CCOC1 (stereo not drawn) [1-H08, N-[(oxolan-3-yl)methyl]prop-2-enamide] | 115.064%
25 | N#CC(C(=O)CCl)=C1Nc2ccccc2S1 [10-J04, 4-chloro-2-(2,3-dihydro-1,3-benzothiazol-2-ylidene)-3-oxobutanenitrile] | 96.0062%
26 | CCOC(=O)c1c(C)[nH]c(C(=O)CCl)c1C [10-J20, ethyl 5-(2-chloroacetyl)-2,4-dimethyl-1H-pyrrole-3-carboxylate] | 103.799%
27 | Cc1ccc(NC(=O)N2CCN(C(=O)C=CCN(C)C)CC2)cc1 [10-H16, 4-[4-(dimethylamino)but-2-enoyl]-N-(4-methylphenyl)piperazine-1-carboxamide] | 98.8116%
28 | C=CC(=O)NCCC(=O)N1CCN(c2nc(C)cs2)CC1 [3-F07, N-{3-[4-(4-methyl-1,3-thiazol-2-yl)piperazin-1-yl]-3-oxopropyl}prop-2-enamide] | 95.0891%
29 | O=C(CCl)Nc1ccc(N=Nc2ccccc2)cc1 [4-C11, 2-chloro-N-[4-(2-phenyldiazen-1-yl)phenyl]acetamide] | 92.9912%
30 | C=CC(=O)Nc1ccnc(OC2CCCCC2)c1 [2-A04, N-[2-(cyclohexyloxy)pyridin-4-yl]prop-2-enamide] | 110.422%
31 | C=CC(=O)N(Cc1ccc(=O)n(C)c1)C1CCCc2ccccc21 (stereo not drawn) [1-B17, N-[(1-methyl-6-oxo-1,6-dihydropyridin-3-yl)methyl]-N-(1,2,3,4-tetrahydronaphthalen-1-yl)prop-2-enamide] | 82.0628%
32 | COC(=O)c1cc(C(=O)CCl)c(C)o1 [10-G13, methyl 4-(2-chloroacetyl)-5-methylfuran-2-carboxylate] | 43.6392%
33 | C=CC(=O)NCCCn1cnc2c1CCCC2 [3-K20, N-[3-(4,5,6,7-tetrahydro-1H-1,3-benzodiazol-1-yl)propyl]prop-2-enamide] | 94.3834%
34 | C=CC(=O)N1CCC(C(=O)N[C@@H]2C[C@H]2c2ccc(Cl)c(F)c2)CC1 [3-B14, N-[(1R,2S)-2-(4-chloro-3-fluorophenyl)cyclopropyl]-1-(prop-2-enoyl)piperidine-4-carboxamide] | 104.793%
35 | N#CC(=Cc1cnn(Cc2ccccc2)c1)C(=O)Nc1nccs1 [9-M03, 3-(1-benzyl-1H-pyrazol-4-yl)-2-cyano-N-(1,3-thiazol-2-yl)prop-2-enamide] | 94.5615%
36 | C=CC(=O)N(C)CC(=O)N1CCC(c2nc(-c3ccccc3)n[nH]2)CC1 [2-H20, N-methyl-N-{2-oxo-2-[4-(3-phenyl-1H-1,2,4-triazol-5-yl)piperidin-1-yl]ethyl}prop-2-enamide] | 93.747%
37 | C=CC(=O)N(Cc1cccc2ccoc12)C1CCSCC1 [1-D04, N-[(1-benzofuran-7-yl)methyl]-N-(thian-4-yl)prop-2-enamide] | 127.331%
38 | O=C(CCl)Cc1cccc(F)c1F [10-K17, 1-chloro-3-(2,3-difluorophenyl)propan-2-one] | 0.1559%
39 | CN(C)c1ccc(C=C(C#N)C(=O)NCc2ccco2)cc1 [9-D10, 2-cyano-3-[4-(dimethylamino)phenyl]-N-[(furan-2-yl)methyl]prop-2-enamide] | 75.2549%
40 | C=CC(=O)NCCn1nc(C)cc1C [3-M13, N-[2-(3,5-dimethyl-1H-pyrazol-1-yl)ethyl]prop-2-enamide] | 97.7357%
41 | C=CC(=O)N(C)c1ccccc1C(=O)NC [2-O18, N-methyl-2-(N-methylprop-2-enamido)benzamide] | 90.6591%
42 | COCCNC(=O)C(C#N)=Cc1c(Cl)cccc1Cl [8-O13, 2-cyano-3-(2,6-dichlorophenyl)-N-(2-methoxyethyl)prop-2-enamide] | 69.6805%
43 | N#CC(C(=O)NC1CCCCC1)=C1N=C(N)c2ccccc21 [9-N06, 2-(3-amino-1H-isoindol-1-ylidene)-2-cyano-N-cyclohexylacetamide] | 86.4038%
44 | COc1cccc(NC(=O)C(C#N)=Cc2cccc(Cl)c2Cl)c1 [8-F06, 2-cyano-3-(2,3-dichlorophenyl)-N-(3-methoxyphenyl)prop-2-enamide] | 72.8076%
45 | COC(=O)c1c(C(=O)CCl)c(C)n(C2CC2)c1C [10-H03, methyl 4-(2-chloroacetyl)-1-cyclopropyl-2,5-dimethyl-1H-pyrrole-3-carboxylate] | 105.513%
